Among all 360,000 compounds or so, about 660 (0.18%) were called active. Inconclusive means that the source gave no clear call. Such entries were picked first, then a sample of the others. Calls follow the shape of the dose curve; as a rule, active = well fitted inhibition curve with a large enough effect; inconclusive = small, poorly fitted or top-dose-only effect; inactive = no such curve, though single readings can be large or run the other way. No potency is given beside an inconclusive call; the fits are too rough.
biological target: Rap guanine nucleotide exchange factor 4 (Homo sapiens) (UniProt Q8WZA2); experiment: qHTS for Antagonist of cAMP-regulated guanine nucleotide exchange factor 2 (EPAC2): primary screen; settings: EPAC2 GEF exchange of Rap1B-BODIPY-GDP, fluorescence; activity, negative = inhibition: at 114 µM (top of the series) unless noted; also: nearly all actives have a fitted effect of over 45% in size
% is scaled to controls: 0 for no effect and ±100 for the full control effect; potency is read from the fitted curve at half-maximal effect; tags tell the direction and shape of the fitted curve.

UniProt Q8WZA2, sequence (Q8WZA2 whole entry, looked up): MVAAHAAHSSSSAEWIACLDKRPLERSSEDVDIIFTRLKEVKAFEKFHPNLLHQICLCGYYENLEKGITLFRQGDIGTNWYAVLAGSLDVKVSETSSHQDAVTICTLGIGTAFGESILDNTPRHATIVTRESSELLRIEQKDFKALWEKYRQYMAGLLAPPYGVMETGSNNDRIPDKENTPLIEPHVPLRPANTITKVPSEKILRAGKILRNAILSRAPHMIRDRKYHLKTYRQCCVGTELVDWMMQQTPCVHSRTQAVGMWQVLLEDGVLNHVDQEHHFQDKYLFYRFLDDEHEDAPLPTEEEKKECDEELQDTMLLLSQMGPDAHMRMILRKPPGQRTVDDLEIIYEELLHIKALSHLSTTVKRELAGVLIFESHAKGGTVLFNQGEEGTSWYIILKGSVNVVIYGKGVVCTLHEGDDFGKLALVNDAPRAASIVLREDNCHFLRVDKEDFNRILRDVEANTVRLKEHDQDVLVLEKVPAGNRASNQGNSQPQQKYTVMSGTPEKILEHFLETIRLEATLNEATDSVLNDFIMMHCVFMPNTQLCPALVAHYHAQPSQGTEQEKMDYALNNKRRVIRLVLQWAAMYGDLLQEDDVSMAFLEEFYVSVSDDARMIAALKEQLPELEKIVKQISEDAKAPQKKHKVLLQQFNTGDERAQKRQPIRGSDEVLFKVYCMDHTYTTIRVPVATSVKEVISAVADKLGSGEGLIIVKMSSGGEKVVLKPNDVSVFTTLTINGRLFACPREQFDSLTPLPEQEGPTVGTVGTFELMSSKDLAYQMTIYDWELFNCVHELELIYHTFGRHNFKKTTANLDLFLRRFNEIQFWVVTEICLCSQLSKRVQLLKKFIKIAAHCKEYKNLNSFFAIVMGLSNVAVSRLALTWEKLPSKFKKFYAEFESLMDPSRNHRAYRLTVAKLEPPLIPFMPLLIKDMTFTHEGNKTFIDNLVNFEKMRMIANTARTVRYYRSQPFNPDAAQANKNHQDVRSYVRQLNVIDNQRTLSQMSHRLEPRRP

SMILES	Potency	activity, negative = inhibition
Cc1ccc(S(=O)(=O)N2[C@@H](CO)CO[C@H]2CC(=O)OCc2ccccc2)cc1	inconclusive [inhibitor, partial curve, poor fit]	–
C=CCN(Cc1nc(-c2ccc(OC)cc2)no1)C(=O)c1ccc2c(c1)OCO2	inconclusive [inhibitor, partial curve]	–
CCCCC[C@@H]1C=C(C(=O)OCC)[C@H](c2ccccc2)N1S(=O)(=O)c1ccc(C)cc1	inconclusive [inhibitor, single point]	–
CCc1ccc(NC(=O)CSc2nc(NS(=O)(=O)c3ccccc3)cc(=O)[nH]2)cc1	–	inactive: -11.2%
Cc1cc(C(=O)N/N=C/c2cccc(OC(=O)c3cccc(Br)c3)c2)n[nH]1	–	inactive: 5.2%
N#Cc1c(N2CCCCC2)nc(N)c2c(N)nc(SCC(=O)O)cc12	inconclusive [inhibitor, single point]	–
CC(C)c1ccc2[nH]c3c(c2c1)CCCC3=O	inconclusive [inhibitor, single point]	–
Cc1cc(Cl)c2oc(C(=O)N(C)CC3CCOCC3)c(C)c2c1	inconclusive [inhibitor, partial curve, poor fit]	–
OCCSc1nc(-c2ccccc2)nc2c1CCC2	inconclusive [inhibitor, partial curve]	–
Cc1ccc(S(=O)(=O)N2CCC(=O)N(CCOCc3cccc(C)c3)CC2)cc1	–	inactive: 10.2%
CC(=O)Nc1ccc(S(=O)(=O)NCc2ccc3c(c2)cc(C)n3C)cc1	–	inactive: 8.84%
Cc1cc(NS(=O)(=O)c2ccc(NC(=S)NC(=O)c3ccc(F)cc3)cc2)no1	–	inactive: -9%
COc1cc(C(=O)Nc2scc(-c3ccc(Br)cc3)c2C(=O)O)cc(OC)c1OC	inconclusive [inhibitor, partial curve]	–
CCOC(=O)C1NN=C(C(=O)c2ccccc2)C1c1ccc(Cl)cc1 (configuration not stated)	inconclusive [inhibitor, partial curve]	–
CC(C)NC(=O)C1(C)CSCC(=O)N1Cc1cccc(C(F)(F)F)c1 (configuration not stated)	–	inactive: 0.673%
Cc1ccsc1CN(C)c1ncnc2ccc(-c3ccoc3)cc12	inconclusive [inhibitor, partial curve]	–
O=C(C1=C[C@@H](c2csc3ccccc23)C[C@@H](OCc2ccc(CO)cc2)O1)N1CCOCC1	inconclusive [inhibitor, single point]	–
COc1cc(/C=C(\C#N)C(=O)c2ccc(O)c(O)c2)cc(I)c1O	inconclusive [inhibitor, single point]	–
COC(=O)C1(C)CCc2c(ccc3ccccc23)C1=O (configuration not stated)	inconclusive [inhibitor, full curve, poor fit]	–
CC(C)C1COC(c2cccn2Cc2ccccc2Cl)=N1 (configuration not stated)	inconclusive [inhibitor, full curve]	–
Cc1ccc2nc(C)cc(N/N=C/c3ccc(F)cc3)c2c1	inconclusive [inhibitor, partial curve, poor fit]	–
Cc1cccc(NC(=S)NNC(=O)c2csc(C(C)C)c2)c1	inconclusive [inhibitor, single point]	–
O=C(O)CCNc1cc(N2CCN(C(=O)c3ccco3)CC2)c2noc3c2c1C(=O)c1ccccc1-3	–	inactive: -22.4%

SMILES	Potency	activity, negative = inhibition
Cc1cccc(N(Cc2ccc(Cl)cc2)S(C)(=O)=O)c1	inconclusive [inhibitor, partial curve]	–
O=C1CC(c2ccc(Cl)cc2)CC(=O)C1CS(=O)(=O)c1ccccc1 (configuration not stated)	–	inactive: -0.549%
O=C(Nc1cccc(S(=O)(=O)N2CCCC2)c1)C1CCCN1C(=O)c1cccs1 (configuration not stated)	–	inactive: 3.69%
CCC(CO)Nc1ccc(-c2n[nH]c(=O)c3ccccc23)cc1[N+](=O)[O-] (configuration not stated)	–	inactive: 7.78%
c1ccc(CSc2nc3ncccn3n2)cc1	–	inactive: 4.77%
COc1ccc(OCC2c3cc(OC)c(OC)cc3CCN2C(=O)C(C)C)cc1 (configuration not stated)	inconclusive [inhibitor, partial curve, poor fit]	–
O=S1(=O)CCOC[C@H](Cc2ccccc2)N1Cc1ccc(Cl)cc1	inconclusive [inhibitor, partial curve]	–
Clc1cccc(CSc2nc3ccncc3[nH]2)c1	inconclusive [inhibitor, partial curve]	–
CCN1CCCc2cc(CN(CCN3CCOCC3)C(=S)Nc3ccccc3C)ccc21	inconclusive [inhibitor, single point]	–
Cc1ccc(Cl)cc1N1CCN(C(=O)C(C)n2ncn3cccc3c2=O)CC1 (configuration not stated)	inconclusive [inhibitor, partial curve]	–
CC(NC(=O)Nc1ccc(O)cc1)(C(F)(F)F)C(F)(F)F	inconclusive [inhibitor, single point]	–
CC1CCC2(CC1)NC(=O)N(Cc1cccc(C(F)(F)F)c1)C2=O (configuration not stated)	inconclusive [inhibitor, full curve, poor fit]	–
CCN(CC)c1ccc(/C=C(\C#N)C(=O)c2ccc(Br)cc2)cc1	–	inactive: 123%
CSc1ccccc1NC(=O)CN(C)CC(=O)Nc1c(F)cccc1F	–	inactive: 8.42%
COc1ccc(/C=C/C(=O)OCC(=O)N(C)c2c(N)n(Cc3ccccc3)c(=O)[nH]c2=O)cc1OC	inconclusive [inhibitor, single point]	–
O=C(O)c1ccc2c(c1)C(=O)N(c1ccc(/C=C/C(=O)c3ccccc3)cc1)C2=O	inconclusive [inhibitor, partial curve]	–
COc1ccc(C(=O)C(=O)N2CCN(C(=O)OCc3ccccc3)CC2)cc1	–	inactive: 0.392%
Cc1c2cc(O)c(=O)cc-2oc2cc(O)c(O)cc12	inconclusive [inhibitor, single point]	–
CC1CCN(c2ccc(NC(=O)Cc3ccccc3)cc2)CC1	–	inactive: 0.594%
CCN(C(=O)CN1C(=O)NC2(CCCC2)C1=O)c1nc2c(C)cccc2s1	–	inactive: -24.7%
COc1ccc2c(c1)c(=O)oc1c(C)c(OCc3cc(C(=O)O)oc3C)ccc12	inconclusive [inhibitor, partial curve]	–
CC1(C(=O)NS(=O)(=O)c2ccccc2Cl)CCN1C(=O)C1(c2ccc(Cl)cc2)CC1 (configuration not stated)	inconclusive [inhibitor, partial curve]	–
COc1ccccc1N(C(=O)CCl)c1cn(C(C)=O)c2ccccc12	inconclusive [inhibitor, partial curve]	–

SMILES	Potency	activity, negative = inhibition
Cc1cc(C)c(OCC(=O)N2CC=C(c3ccccc3)CC2)c(C)c1	inconclusive [inhibitor, partial curve]	–
CNC(=S)N1CCN=C1Nc1nc(C)cc(C)n1	inconclusive [inhibitor, single point]	–
CCOc1cc(N2CCOCC2)c(OCC)cc1NC(=O)C(C)Oc1ccccc1 (configuration not stated)	inconclusive [inhibitor, partial curve]	–
CCOC(=O)N(C)c1c(CC)nc2c(OCc3ccc(Cl)cc3)cccn12	inconclusive [inhibitor, full curve]	–
O=S1(=O)CCOC[C@H](CC2CCCCC2)N1Cc1ccc(F)cc1	inconclusive [inhibitor, full curve, poor fit]	–
Cc1nnsc1-c1c(C(=O)Oc2ccccc2)c(C)nn1-c1ccccc1	inconclusive [inhibitor, full curve, poor fit]	–
Oc1c(Br)cc(Br)c(/C=N/n2c(-c3ccccc3)n[nH]c2=S)c1Br	inconclusive [inhibitor, single point]	–
COc1cccc(CNC(=O)C2CSC3(C)CCC(=O)N23)c1 (configuration not stated)	–	inactive: 17.7%
N/C(=N\OC(=O)c1ccccc1Cl)c1ccc(Cl)cc1	–	inactive: 8.49%
CCCCCc1c(-c2ccc(Cl)cc2)ncn1CCc1ccccc1OC	inconclusive [inhibitor, partial curve]	–
O=[N+]([O-])c1c(O)c(Cl)cc(Cl)c1Cl (tested in a mixture with another compound)	inconclusive [inhibitor, partial curve]	–
O=C1c2cccc3c(O)ccc(c23)C(=O)N1c1ccc(Cl)cc1	–	inactive: 220%
Cc1ccccc1-c1csc(C(O)c2cccc(Cl)c2)n1 (configuration not stated)	inconclusive [inhibitor, partial curve]	–
Cc1ccn2c(C=O)c(-c3ccc(F)cc3)c(C=O)c2c1	inconclusive [inhibitor, partial curve]	–
O=C(OC(C(=O)c1c[nH]c2ccccc12)c1ccccc1)c1cnccn1 (configuration not stated)	inconclusive [inhibitor, single point]	–
CC(C)CNC(C(=O)Nc1ccc([N+](=O)[O-])cc1Br)c1ccccc1 (configuration not stated)	inconclusive [inhibitor, full curve, poor fit]	–
CCOC(=O)C1=C(C)N=C2SC(C)C(=O)N2C1c1ccccc1 (configuration not stated)	inconclusive [inhibitor, partial curve]	–
Cc1ccccc1N(C=O)c1ccccc1C	inconclusive [inhibitor, partial curve]	–
Cc1nn(-c2ccc3ccccc3c2)c(=O)c2ccccc12	inconclusive [inhibitor, partial curve]	–
CC(=O)Nc1ccc(SCC(=O)Nc2ccccc2Oc2ccccc2)cc1	inconclusive [inhibitor, partial curve]	–
Cc1cc(OCC(F)(F)C(F)(F)C(F)(F)C(F)(F)C(F)(F)C(F)F)nc(N)n1	inconclusive [inhibitor, partial curve]	–
